Paper PMC4336329 (PLoS ONE, 2015)
In all, about 310,000 compounds went through this assay and about 2,200 (0.71%) showed an effect of 50% or more. Effects have a minus sign here. The list shows a part of the results.

Biological target: human ether-à-go-go-related gene (hERG) potassium channel (human, UniProt Q12809)
Assay: primary screen, population patch clamp on CHO cells stably expressing hERG

Chain of human ether-à-go-go-related gene (hERG) potassium channel (Q12809 whole entry, looked up): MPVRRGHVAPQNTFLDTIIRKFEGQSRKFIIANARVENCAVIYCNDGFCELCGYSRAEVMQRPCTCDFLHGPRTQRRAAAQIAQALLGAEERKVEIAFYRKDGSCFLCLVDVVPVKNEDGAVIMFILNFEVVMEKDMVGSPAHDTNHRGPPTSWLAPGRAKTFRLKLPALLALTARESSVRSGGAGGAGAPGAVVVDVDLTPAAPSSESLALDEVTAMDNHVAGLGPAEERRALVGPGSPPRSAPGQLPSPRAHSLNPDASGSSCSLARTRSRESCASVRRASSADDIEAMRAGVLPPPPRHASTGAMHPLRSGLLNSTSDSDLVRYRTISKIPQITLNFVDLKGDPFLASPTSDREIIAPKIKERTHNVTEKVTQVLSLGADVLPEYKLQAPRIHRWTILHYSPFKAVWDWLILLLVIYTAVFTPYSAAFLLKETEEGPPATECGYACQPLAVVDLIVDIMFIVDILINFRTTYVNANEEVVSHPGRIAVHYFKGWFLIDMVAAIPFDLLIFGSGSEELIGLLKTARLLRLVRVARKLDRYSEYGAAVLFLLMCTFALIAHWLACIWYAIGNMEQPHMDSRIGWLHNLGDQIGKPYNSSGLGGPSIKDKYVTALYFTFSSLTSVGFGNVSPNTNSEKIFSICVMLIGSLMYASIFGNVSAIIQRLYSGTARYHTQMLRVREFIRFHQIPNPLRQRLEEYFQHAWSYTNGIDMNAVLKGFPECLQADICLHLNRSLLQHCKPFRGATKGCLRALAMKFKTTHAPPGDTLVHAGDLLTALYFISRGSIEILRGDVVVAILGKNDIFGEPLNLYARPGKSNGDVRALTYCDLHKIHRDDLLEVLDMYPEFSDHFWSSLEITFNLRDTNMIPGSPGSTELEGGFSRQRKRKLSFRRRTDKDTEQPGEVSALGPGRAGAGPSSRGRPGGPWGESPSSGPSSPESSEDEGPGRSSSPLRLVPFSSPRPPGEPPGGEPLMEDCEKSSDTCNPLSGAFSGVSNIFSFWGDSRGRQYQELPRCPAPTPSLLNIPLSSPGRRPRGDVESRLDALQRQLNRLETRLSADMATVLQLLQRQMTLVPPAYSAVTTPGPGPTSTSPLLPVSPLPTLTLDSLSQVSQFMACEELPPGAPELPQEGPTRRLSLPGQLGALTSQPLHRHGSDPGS

| SMILES | hERG current change (%, negative = inhibition) at 1uM |
| --- | --- |
| Cc1cccc(NS(=O)(=O)c2cccc(C(=O)NCc3ccccc3CN3CCOCC3)c2)c1 | -4.3% |
| Cc1ccsc1/C=C1\Oc2cc(OCC(=O)c3ccccc3)ccc2C1=O | 9.53% |
| C=CCn1c(SCC(=O)N2CCc3ccccc3C2)nc2sc(C)c(C)c2c1=O | 7.56% |
| Cc1nn(C(C)C(=O)Nc2ccccc2Cl)c(=O)c2nn(-c3ccccc3)c(C)c12 (centres unmarked) | 3.8% |
| CCC(C)c1ccc(OCCN2CCCC2)cc1 (centres unmarked) | -0.789% |
| O=C(NCCc1c[nH]c2ccccc12)C(=O)NCC(c1ccco1)N1CCN(c2ccc(F)cc2)CC1 (centres unmarked) | 10.1% |
| CCCN1C(=O)c2cc(C(=O)Nc3ccccc3CC)ccc2C1O (centres unmarked) | 8.47% |
| COc1cccc(CNC(=O)C2CCCN(c3nc4ccccc4o3)C2)c1 (centres unmarked) | -7.68% |
| O=C(N/N=C/c1ccccc1F)c1cccc(NC(=O)c2ccccc2Cl)c1 | 12.5% |
| C=CCN1C(=O)NC(=O)/C(=C/c2cc3c4c(c2)CCCN4CCC3)C1=O | -8.47% |
| N#Cc1ccccc1OCC(=O)Nc1ccc2c(c1)OCCCO2 | 6.91% |
| COc1ccc(N(C)S(=O)(=O)c2cccc3nsnc23)cc1 | 15.6% |
| O=C(CSc1nnc(CNC(=O)c2ccco2)o1)Nc1ccc(Br)cc1 | 1.05% |
| COc1ccccc1-c1noc(CCC(=O)NC2CCCC2)n1 | 15.2% |
| COc1ccc(/C(N)=N/OC(=O)c2ccc(C)c([N+](=O)[O-])c2)cc1OC | 15.6% |
| Cc1ccc(NC(=O)CSc2n[nH]c(-c3cccnc3)n2)cc1Cl | 3.82% |
| COc1cc([N+](=O)[O-])cc(/C=N/NC(=O)C(C)Nc2ccccc2C)c1O (centres unmarked) | 19.3% |
| O=C(Nc1ccc2c(c1)CCC2)c1ccccc1Br | 2.99% |
| O=[N+]([O-])c1ccc2c(c1)C(O)n1nc(-c3ccccc3)nc1S2 (centres unmarked) | 14.3% |
| Cc1cc(=O)oc2cc(NC(=S)NCc3ccccn3)ccc12 | 5.98% |
| Cc1ccc2nc(SCC(=O)N/N=C/c3ccco3)cc(C)c2c1 | 9.47% |
| O=P(O)(CCc1ccccn1)CN1CCOCC1 | 7.57% |
| Cc1ccc(Cn2nnnc2CN2CCC(O)(c3ccc(F)cc3)CC2)cc1 | 10.2% |

| SMILES | hERG current change (%, negative = inhibition) at 1uM |
| --- | --- |
| COc1cc(C(=O)Nc2scc(-c3ccc(C)cc3)c2C(=O)O)cc(OC)c1OC | 19.6% |
| COc1ccc(Nc2c(-c3ccc(C)cc3)nc3cnccn23)cc1 | -3.17% |
| COc1ccccc1NC(=O)CSc1nccn1Cc1ccccc1 | 5.23% |
| CCN1CCN(c2ccc(N3CCN(C(=O)c4ccc(Br)o4)CC3)nn2)CC1 | -38.3% |
| O=C(CC1C(=O)NCCN1C(=O)c1ccc(Cl)cc1)Nc1ccc(F)cc1 (centres unmarked) | -1.98% |
| N#CCCn1cc(C(=O)Nc2ccc([N+](=O)[O-])cc2)c(-c2cccs2)n1 | -15.8% |
| CC(=O)NC(NC(C)=O)c1cccc(OCc2ccccc2)c1 | 9.62% |
| Cc1cccc(/N=C/c2ccccn2)n1 | 3.77% |
| COc1ccc(CNC(=O)CNC(=O)CNS(=O)(=O)c2ccc(C)c(C)c2)cc1 | 13.8% |
| O=C(NNC(=O)c1ccc(-c2ccccc2)cc1)Nc1ccc(F)cc1F | 12.7% |
| CCc1ccc(NC(=O)c2cc(-c3ccc(OC)cc3)on2)cc1 | -0.549% |
| O=C(NCc1cccc(C(F)(F)F)c1)c1cccc(S(=O)(=O)N2CCN(Cc3ccccc3)CC2)c1 | 9.95% |
| CC(C)CC1NC(=O)N(CC(=O)Nc2ccccc2-c2ccccc2)C1=O (centres unmarked) | -16.9% |
| COc1ccc(C2c3c(-c4cc(Cl)c(C)cc4O)n[nH]c3C(=O)N2Cc2cccnc2)cc1OC (centres unmarked) | 14.6% |
| Cc1cccc(NC(=O)COC(=O)c2ccccn2)c1 | 15.4% |
| CCOC(=O)C1=NOC(C(=O)NN(C)c2ncc(C(F)(F)F)cc2Cl)C1 (centres unmarked) | 8.26% |
| CN1CCN(C(=O)C2=C[C@@H](c3ccccc3)C[C@@H](OCc3ccc(CO)cc3)O2)CC1 | 13.5% |
| CN(C)c1ccc(/C=N/NC(=O)C[n+]2ccccc2)cc1.[Cl-] | 16.5% |
| Cc1nn(CC(=O)N2CCCC2)c(=O)c2nn(-c3ccccc3)c(C)c12 | 13.5% |
| CCC(=O)Nc1ccc(N2CCN(C(=O)c3cccs3)CC2)cc1 | 3.02% |
| COc1cc(OC)c(C2=NOC(C(=O)N3CCN(C(=O)c4ccco4)CC3)C2)cc1Cl (centres unmarked) | -12.8% |
| O=C(O)C1C2C=CC(C2)C1C(=O)NCCc1ccccc1 (centres unmarked) | 8.19% |
| COc1cc(-c2cccs2)cc(=O)c2c(C)oc(C)c12 | -2.79% |

| SMILES | hERG current change (%, negative = inhibition) at 1uM |
| --- | --- |
| O=C(COC(=O)c1cccnc1SC(F)F)NC1CC1 | 7.92% |
| COc1cc2c(cc1NC(=O)c1cccc(Br)c1)CCCC2 | -0.718% |
| O=C(Nc1ccc(Oc2ccc3ccccc3c2)cc1)c1ccco1 | 7.79% |
| O=C(Nc1ccc2nc(-c3ccco3)c(-c3ccco3)nc2c1)N1CCN(c2ccccn2)CC1 | 4.97% |
| COc1ccc(NC(=O)COC(=O)CCNS(=O)(=O)c2ccc(Cl)cc2)cc1 | 3.54% |
| Cc1ccc(/C=N\Nc2nc3ccc(Cl)cc3[nH]2)o1 | 3.42% |
| CC(C)Sc1cc(Cl)nc(NC(=O)Nc2ccccc2)n1 | 17.4% |
| COc1ccc(NC(=O)NNC(=O)C(C)Oc2ccc3ccccc3c2)cc1 (centres unmarked) | 11.6% |
| CSc1ccccc1C(=O)NCCS(=O)(=O)N1CCN(c2ccc(F)cc2)CC1 | -16% |
| O=C(Cc1cc(=O)[nH][nH]1)N/N=C/c1cccc2ccccc12 | 9.77% |
| CCCNc1nc2c(c(=O)[nH]c(=O)n2C)n1Cc1cccc(Br)c1 | 8.17% |
| O=C1C2CCCN2c2ccc(S(=O)(=O)N3CCOCC3)cc2N1Cc1ccccc1F (centres unmarked) | 17.3% |
| Cc1ccc(OCCNC(=O)CNC(=O)c2ccc(C)c(C)c2)cc1 | 4.24% |
| CC(C(=O)O)n1ncc2ccccc2c1=O (centres unmarked) | 9.08% |
| CN(c1ccccc1)S(=O)(=O)c1ccc(C(=O)Nc2nnc(C3CC3)s2)cc1 | 8.07% |
| Cc1nnc(SCC(=O)NC2CCCCC2)s1 | 11.3% |
| Cc1ccc(NC(=O)COC(=O)Cc2csc(-c3cccc(F)c3)n2)cc1C | -7.18% |
| CCC(CC)C(=O)Nc1ccccc1-n1cccc1 | 8.16% |
| Cc1ccc(Cl)cc1NC(=O)c1ccc(Cn2cc(Cl)cn2)cc1 | 15.8% |
| CCOC(=O)c1sc2ncn(/N=C/N(C)C)c(=O)c2c1C | 10.3% |
| CC12CCC(O)CC1=CCC1C2CCC2(C)C1CCC21CCC(=O)O1 (centres unmarked) | 8.84% |
| CN(c1ccccn1)c1ncnc2[nH]ncc12 | 6.34% |
| O=C(NC1=NCCS1)[C@H](Cc1ccccc1)N1C(=O)c2ccccc2C1=O | 15.9% |

| SMILES | hERG current change (%, negative = inhibition) at 1uM |
| --- | --- |
| Cc1ccc(OC(=O)COc2ccccc2C)c(-n2nc3ccccc3n2)c1 | -2.47% |
| CCOC(=O)C1CCN(S(=O)(=O)c2ccc(-n3cnnn3)c(C)c2)CC1 | 7.04% |
| COc1cc(C(=O)Nc2cccc(C(C)=O)c2)cc(OC)c1OC | 7.4% |
| O=Cc1cccn1-c1ccc(O)cc1 | 19.5% |
| CCOc1ccc(C2CC(c3ccc(OC)cc3)n3ncnc3N2)cc1 (centres unmarked) | 7.93% |
| COc1ccccc1N1CCN(C(=O)c2sc3nc(-c4ccc(F)cc4)cn3c2C)CC1 | 5.83% |
| Cc1ccc2nc(C)c(C(=O)N/N=C/c3ccco3)cc2c1 | 6.29% |
| CC(=O)c1cccc(NC(=O)C2CCCN(S(=O)(=O)c3cccc4cccnc34)C2)c1 (centres unmarked) | 11.7% |
| CCc1ccc(OCC(=O)N2CC(C(=O)OC)Oc3ccccc32)cc1 (centres unmarked) | 5.17% |
| Cl.c1ccc(C2NCCc3ccccc32)cc1 (centres unmarked) | -6.77% |
| CNC(=O)Nc1ccccc1F | 8.25% |
| CC1(C)Cc2c(sc(NC(=O)c3ccco3)c2C#N)CO1 | -0.942% |
| CC1(C)CC2(CCO1)OC(=O)CC2C(=O)NCCc1ccccc1 (centres unmarked) | 22.2% |
| O=C(NC(=S)Nc1ncccn1)c1ccc(F)cc1 | 14.7% |
| Cc1c(Br)c(C(F)(F)F)nn1CC(=O)N(C)C1CCCCC1 | 10.6% |
| CN(c1ccccc1)S(=O)(=O)c1ccc(NC(=O)C2CCCCC2C(=O)O)cc1 (centres unmarked) | 13.1% |
| CCc1ccccc1NC(=O)c1cnn(-c2ccccc2)c1C | 5.93% |
| CC(=O)N1CCN(C(=O)c2cc(S(=O)(=O)NCc3ccccc3)ccc2C)CC1 | 12.3% |
| COCc1cc(C)nc(N/N=C/c2ccc(Cl)c(Cl)c2)c1C#N | 12.4% |
| CC1(C)CC(=O)c2c(nn(-c3ccccc3)c2N)C1 | 20.2% |
